# Where “and” joins values, the source holds several entries; their conditions need not be identical. Equal values may be shown once. This list was built around the results that the source calls inconclusive (neither active nor inactive); the mix of calls is not that of the screen. For some assays here: Potencies of inconclusive entries are doubtful fits and often do not repeat. Calls of active or inactive are those of the source. Calls follow the shape of the dose curve; as a rule, active = well fitted curve in the direction sought with a large enough effect; inconclusive = small, poorly fitted or top-dose-only effect, or another doubt; inactive = no such curve, though single readings can be large; an effect the other way counts as inactive or inconclusive.
# Tests used:
# [1] = qHTS of pediatric cancer cell lines to identify multiple opportunities for drug repurposing: Primary screen for Saos-2 cells (AID 1347097); conditions: Saos-2 viability, CellTiter-Glo ATP luminescence, 48 h; activity change, negative = cytotoxic: at 46 µM (top of the series); also: potency is read from the fitted curve at half-maximal effect; nearly all actives have a fitted effect of over 40% in size
# Outline: (§1)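 Phenotypic viability qHTS, 48 h compound exposure, CellTiter-Glo luminescence read-out; multi-concentration dosing so that potency and efficacy derive directly from the primary screen's curves.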
# [2] = qHTS of pediatric cancer cell lines to identify multiple opportunities for drug repurposing: Primary screen for NB1643 cells (AID 1347099); also: potency is read from the fitted curve at half-maximal effect; nearly all actives have a fitted effect of over 50% in size
# Outline: as §1
# [3] = qHTS of pediatric cancer cell lines to identify multiple opportunities for drug repurposing: Primary screen for RD cells (AID 1347104); also: nearly all actives have a fitted effect of over 55% in size; also: potency is read from the fitted curve at half-maximal effect;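 as to activity change, negative = cytotoxic: plate controls were DMSO for no effect and bortezomib for full effect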
# Outline: as §1
# [4] = qHTS of pediatric cancer cell lines to identify multiple opportunities for drug repurposing: Primary screen for MG 63 (6-TG R) cells (AID 1347105); conditions: MG 63 (6-TG R) viability, CellTiter-Glo, 48 h; activity change, negative = cytotoxic: at 46 µM (top of the series) unless noted; also: nearly all actives have a fitted effect of over 50% in size; also: potency is read from the fitted curve at half-maximal effect; as to activity change, negative = cytotoxic: % is scaled to controls: 0 for no effect and ±100 for the full control effect
# Outline: as §1
# MCC-13 = experiment: qHTS assay to identify novel small-molecules to repurpose for Merkel cell carcinoma treatment (AID 1296009); conditions: MCC and control cell lines, CellTiter-Glo viability, 72 h; series mostly up to 46 µM; also: nearly all actives have a fitted effect of over 60% in size; also: potency is read from the fitted curve at half-maximal effect; as to activity change, negative = cytotoxicity: % is scaled to controls: 0 for no effect and ±100 for the full control effect
# Outline: (§2)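 Dose-response viability screen; 72 hr exposure at 37 degree celsius; CellTiter-Glo added, 10 min room temperature, luminescence read; RLUs scaled between no-cell and DMSO wells.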
# MCC-26 = experiment: as above; conditions: MCC and control cell lines, CellTiter-Glo viability, 72 h; series mostly up to 46 µM
# Outline: as §2
# MKL-1 = experiment: as above; conditions: MCC and control cell lines, CellTiter-Glo viability, 72 h; activity change, negative = cytotoxicity: at 46 µM (top of the series)
# Outline: as §2
# [5] = P-glycoprotein substrates identified in KB-3-1 adenocarcinoma cell line, qHTS therapeutic library screen (AID 1346986); conditions: KB-3-1 parental cells viability, CellTiter-Glo, 72 h;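 also: potency is read from the fitted curve at half-maximal effect; potency is for cytotoxicity meaning loss of cell viability; nearly all actives have a fitted effect of over 60% in size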
# Outline: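 In 1536-well format, 500 cells/well received pinned compound titrations and were incubated 72 h, 5% CO2. Viability was read by CellTiter-Glo; cytotoxic if AC50 < 10 uM and efficacy >50%.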
# [6] = tested on: Zika virus NS2B-NS3 protease (linked construct); experiment: Primary screen NINDS Rhodamine qHTS for Zika virus inhibitors (AID 1347160); also: nearly all actives have a fitted effect of over 55% in size; also: potency is read from the fitted curve at half-maximal effect
# Outline: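 Enzyme (25 nM, linked NS2B-NS3) was preincubated 15 min with compound in 10 mM Tris-HCl pH 8.0, 0.01% Tween 20. Rhodamine110 substrate (1.5 microM) was then added and fluorescence read at start and after 15 min.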
# [7] = target: Calcium and integrin-binding protein 1 (Homo sapiens) (UniProt Q99828); experiment: Primary qHTS for Identification of Calcium Integrin Binding Protein 1 (CIB1) Competitor (AID 1508620); also: potency is read from the fitted curve at half-maximal effect
# Chain of UniProt Q99828 (Q99828 whole entry, looked up): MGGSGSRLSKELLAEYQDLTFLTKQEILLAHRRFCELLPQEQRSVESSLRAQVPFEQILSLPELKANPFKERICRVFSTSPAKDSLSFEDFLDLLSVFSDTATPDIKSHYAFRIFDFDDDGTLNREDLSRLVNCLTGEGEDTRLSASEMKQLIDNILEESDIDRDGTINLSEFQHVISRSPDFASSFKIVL
# Outline: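 Fluorescence polarization competition: GST-tagged CIB1 (1 uM final) preincubated with compound 15 min at room temperature, then FITC-labelled alphaIIb peptide (100 nM final) added. After 15 min at room temperature, polarization read at Ex 480/Em 540.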
# [8] = qHTS assay to identify inhibitors of the type 1 interferon - major histocompatibility complex class I in skeletal muscle: Counter screen cell viability and HiBit confirmation (AID 1347412); conditions: iHSKM muscle cells + IFN-b, HiBiT or CellTiter-Glo, 24 h; for activity change, negative = inhibition: at 45.9 µM (top of the series); also: potency is read from the fitted curve at half-maximal effect; as to activity change, negative = inhibition: % is scaled to controls: 0 for no effect and ±100 for the full control effect; as to all read-outs here: nearly all actives have a fitted effect of over 60% in size
# Outline: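 Myoblasts (C25cl48, HLA-B HiBiT) seeded in medium without dexamethasone, IFN-b 4 ng/ml added except unstimulated columns; 1 hr later compounds pinned (12-pt 1:3, top 46 uM final). Incubated 24 hrs, lysed 10 min, luminescence measured.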
# [9] = qHTS of pediatric cancer cell lines to identify multiple opportunities for drug repurposing: Primary screen for control Hh wild type fibroblast cells (AID 1347106); also: potency is read from the fitted curve at half-maximal effect; nearly all actives have a fitted effect of over 55% in size
# Outline: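 Cells (500-1,000/well) in growth media were settled 5 h at 37 degrees C, then given compounds for 48 h. Viability was read as CellTiter-Glo luminescence. Primary runs used MIPE at 11 points (0.78 nM-46 µM) and NPC at 8 points (0.59 nM-46 µM); follow-ups used 11 points.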
# [10] = Primary qHTS for small molecule stabilizers of the endoplasmic reticulum resident proteome: Secreted ER Calcium Modulated Protein (SERCaMP) assay (AID 1508630); conditions: SH-SY5Y GLuc-SERCaMP (Gaussia luciferase released on ER calcium loss) secretion, thapsigargin, luminescence; activity change, negative = inhibition: at 38.4 µM (top of the series); also: potency is read from the fitted curve at half-maximal effect
# Outline: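 The SH-SY5Y reporter protocol was run at 3 concentrations up to 38.3 uM (primary) or 11 concentrations (follow-up): 16 h compound, 100 nM thapsigargin for 4 h, then extracellular luciferase luminescence.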
# [11] = qHTS of pediatric cancer cell lines to identify multiple opportunities for drug repurposing: Primary screen for BT-37 cells (AID 1347094); also: potency is read from the fitted curve at half-maximal effect;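 as to activity change, negative = cytotoxic: plate controls were DMSO for no effect and bortezomib for full effect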
# Outline: as §1
# MKL-2 = experiment: qHTS assay to identify novel small-molecules to repurpose for Merkel cell carcinoma treatment (AID 1296009); conditions: MCC and control cell lines, CellTiter-Glo viability, 72 h; activity change, negative = cytotoxicity: at 46 µM (top of the series); also: nearly all actives have a fitted effect of over 60% in size; also: potency is read from the fitted curve at half-maximal effect; as to activity change, negative = cytotoxicity: % is scaled to controls: 0 for no effect and ±100 for the full control effect
# Outline: as §2
# [12] = NS1 protein of Zika virus - qHTS assay to identify small molecule inhibitors in human HEK 293 cells (AID 1347053); also: potency is read from the fitted curve at half-maximal effect; nearly all actives have a fitted effect of over 55% in size
# Outline: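 TR-FRET signal from two anti-ZIKV NS1 antibodies quantified NS1 in HEK 293 cells 24 h after MR766 infection at MOI = 0.5; compounds were added 1 h before virus. Uninfected cells and infected cells defined the NS1 normalization range.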
# [13] = Quantitative High-Throughput drug screen in 47 multiple myeloma cell lines against the NCATS MIPE library collection: KMS21BM_JCRB cell viability assay (AID 1918974); conditions: ATP luminescence, 48 h; viability: at 45.8 µM (top of the series); also: potency is read from the fitted curve at half-maximal effect
# Outline: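 Relative luminescence from CellTiter-Glo served as the viability signal, referenced to DMSO-treated (100%) and cell-free medium (0%) controls. Treatment lasted 48 hours at 37C with 500 cells per well.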
# [14] = Quantitative High-Throughput drug screen in 47 multiple myeloma cell lines against the NCATS MIPE library collection: MOLP8_DSMZ cell viability assay (AID 1918977); conditions: MOLP8 myeloma viability, CellTiter-Glo ATP luminescence, 48 h; viability (% of control): at 45.8 µM (top of the series); also: potency is read from the fitted curve at half-maximal effect; nearly all actives have a fitted effect of over 45% in size
# Outline: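 Cells were exposed to library compounds for 48 hours, after which ATP was measured by CellTiter-Glo. Signal was taken as median relative luminescence units.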
# [15] = qHTS of pediatric cancer cell lines to identify multiple opportunities for drug repurposing: Confirmatory screen for DAOY cells (AID 1347114); also: % is scaled to controls: 0 for no effect and ±100 for the full control effect; nearly all actives have a fitted effect of over 65% in size
# Outline: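 Viability measured as metabolically active cells via CellTiter-Glo luminescence following 48 hours of compound exposure, 11-point dilutions in confirmatory testing. 500-1,000 cells/well plated 5 hours before dosing; controls were DMSO and 2.3 µM bortezomib.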
# [16] = Quantitative High-Throughput drug screen in 47 multiple myeloma cell lines against the NCATS MIPE library collection: KMM1_JCRB cell viability assay (AID 1918960); also: potency is read from the fitted curve at half-maximal effect; nearly all actives have a fitted effect of over 30% in size
# Outline: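 500 cells/well; MIPE 4.0 library pinned in; 48 h, 37 °C, 5% CO2; CellTiter-Glo ATP luminescence. Controls: DMSO = 100% viability, medium only = 0%.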
# Tags tell the direction and shape of the fitted curve.
smiles,measurement,setting,value
O=C(CCN1CCC(c2ccccc2)C1)c1ccc2c(c1)OCCO2 (stereo not given),Potency,[1],active: 23.7 µM
same,Potency,[2],"inconclusive: 26.6 µM [cytotoxic, single point]"
same,Potency,[3],"inconclusive: 18.8 µM [cytotoxic, single point]"
same,Potency,[4],"inconclusive: 33.5 µM [cytotoxic, single point]"
same,Potency,MCC-13,"inconclusive: 26.6 µM [inhibitor, single point]"
same,Potency,MCC-26,inactive
same,Potency,MKL-1,active: 2.66 µM
Cc1cccc(C)c1NC(=O)CN1CCCC1,Potency,[3],inactive
same,Potency,[4],inactive
Nc1ccn([C@@H]2C(F)=C(CO)[C@@H](O)[C@H]2O)c(=O)n1,Potency,[5],active: 3.66 µM
Cc1sc2c(c1C)C(c1ccc(Cl)cc1)=N[C@@H](CC(=O)Nc1ccc(OCCOCCOCCOCCNc3cccc4c3C(=O)N(C3CCC(=O)NC3=O)C4=O)cc1)c1nnc(C)n1-2 (stereo not given in full),Potency,[6],"inconclusive: 12.6 µM [inhibitor, single point]"
same,Potency,[7],"inconclusive: 22.4 µM [inhibitor, partial curve, poor fit]"
same,Potency,[8]; HiBiT,"inconclusive: 0.0991 µM [inhibitor, full curve]"
same,"activity change, negative = inhibition",[8]; Viability,inactive: 0.552%
CC(C)=CCNc1ncnc2c1ncn2[C@@H]1O[C@H](CO)[C@@H](O)[C@H]1O,Potency,[5],active: 5.8 µM
same,Potency,[2],active: 5.31 µM
same,Potency,[9],active: 8.41 µM
same,Potency,[10],inactive
same,Potency,MCC-13,active: 8.41 µM
same,Potency,MCC-26,"inconclusive: 13.3 µM [inhibitor, partial curve]"
same,Potency,MKL-1,active: 1.68 µM
same,Potency,[8]; HiBiT,"inconclusive: 4.97 µM [inhibitor, full curve]"
same,Potency,[8]; Viability,"inconclusive: 12.5 µM [cytotoxic, partial curve]"
C/C(=C(/OCCOc1ccc(Cl)cc1)c1ccc(Cl)cc1Cl)n1ccnc1,Potency,[11],inactive
same,Potency,[2],"inconclusive: 15 µM [cytotoxic, single point]"
same,Potency,[3],"inconclusive: 15 µM [cytotoxic, partial curve]"
same,Potency,[7],inactive
same,Potency,[10],"inconclusive: 28.2 µM [inhibitor, single point]"
same,Potency,MKL-2,"inconclusive: 29.9 µM [inhibitor, single point]"
CCCCN1CCCC1C(=O)Nc1c(C)cc(C)cc1C (stereo not given),Potency,[1],"inconclusive: 16.8 µM [cytotoxic, partial curve, poor fit]"
same,Potency,MCC-13,inactive
same,Potency,MCC-26,inactive
C=C(C(=O)O)[C@@H]1CC=C(CCC(C)=O)[C@@H](C)CC1,Potency,[6],"inconclusive: 17.8 µM [inhibitor, single point]"
Cc1cn(CCN2CCN(c3ccccc3-c3cc(C#N)cc(C(=O)NCCCN4CCCC4)c3)CC2)c2ccccc12,Potency,[8]; HiBiT,"inconclusive: 22.2 µM [inhibitor, single point]"
same,Potency,[8]; Viability,"inconclusive: 44.3 µM [cytotoxic, single point]"
C[C@H]1[C@@H](OC(=O)CCC(=O)O)O[C@@H]2O[C@@]3(C)CC[C@@H]4[C@H](C)CC[C@@H]1[C@@]24OO3,Potency,[12],"inconclusive: 37.2 µM [inhibitor, single point]"
same,Potency,[13],"inconclusive: 37.2 µM [rising, partial curve, poor fit]"
same,Potency,[14],"inconclusive: 0.332 µM [cytotoxic, full curve, poor fit]"
same,Potency,MCC-13,"inconclusive: 14.8 µM [inhibitor, partial curve]"
same,Potency,MKL-2,active: 5.26 µM
Cn1ccc(NC(=O)c2cc(Oc3ccc(C(=O)N4CCC4)c(F)c3)c3c(c2)OC(C)(C)C3)n1,Potency,[6],inactive
OC(CNCCc1c[nH]c2ccccc12)Cn1c2ccccc2c2ccccc21 (stereo not given),Potency,[6],inactive
O=c1c(-n2ccnn2)c[nH]n1-c1cc(N2CCOCC2)ncn1,"activity change, negative = inhibition",[8]; HiBiT,inactive: -24.7%
same,"activity change, negative = inhibition",[8]; Viability,inactive: -14.1%
O=C(N/N=C/c1ccccc1O)c1ccncc1,Potency,[12],"inconclusive: 28.2 µM [inhibitor, single point]"
same,Potency,[11],active: 11 µM
same,Potency,[1],"inconclusive: 10.6 µM [cytotoxic, partial curve]"
same,Potency,[3],"inconclusive: 21.1 µM [cytotoxic, single point]"
same,Potency,[9],"inconclusive: 13.3 µM [cytotoxic, partial curve, poor fit]"
same,Potency,[10],"inconclusive: 10 µM [inhibitor, partial curve, poor fit]"
same,Potency,MCC-13,"inconclusive: 2.66 µM [inhibitor, full curve]"
same,Potency,MCC-26,active: 9.44 µM
C=C[C@@]1(C)CC(=O)[C@]2(O)[C@@]3(C)[C@@H](O)CCC(C)(C)[C@@H]3[C@H](O)[C@H](OC(C)=O)[C@@]2(C)O1,Potency,[15],inactive
same,Potency,[10],inactive
CC#C[C@@H](CC(=O)O)c1ccc(OCc2cccc(-c3ccc(C(F)(F)F)cc3)c2)cc1,Potency,[6],active: 1.58 µM
CCCCOc1ccc(CC(=O)NO)cc1,Potency,[11],"inconclusive: 21.7 µM [cytotoxic, partial curve]"
same,Potency,[1],"inconclusive: 53.1 µM [cytotoxic, partial curve, poor fit]"
same,Potency,[15],inactive
same,Potency,[16],"inconclusive: 16.6 µM [cytotoxic, partial curve]"
same,Potency,[13],active: 14.8 µM
same,Potency,[14],"inconclusive: 14.8 µM [cytotoxic, partial curve, poor fit]"
same,Potency,MCC-13,inactive
same,Potency,MCC-26,"inconclusive: 21.1 µM [inhibitor, partial curve, poor fit]"
same,Potency,MKL-1,"inconclusive: 26.4 µM [inhibitor, single point]"
same,Potency,MKL-2,"inconclusive: 11.9 µM [inhibitor, partial curve, poor fit] and inconclusive: 37.2 µM [inhibitor, single point]"
